Results reported in publication PMC4336329 (PLoS ONE, 2015).
About 2,200 (0.71%) of roughly 310,000 compounds showed an effect of 50% or more. The effect is printed as a negative number. The list shows a part of the results.

Target: human ether-à-go-go-related gene (hERG) potassium channel (human, UniProt Q12809)
Assay: primary screen, population patch clamp on CHO cells stably expressing hERG

Sequence of human ether-à-go-go-related gene (hERG) potassium channel (Q12809 whole entry, looked up): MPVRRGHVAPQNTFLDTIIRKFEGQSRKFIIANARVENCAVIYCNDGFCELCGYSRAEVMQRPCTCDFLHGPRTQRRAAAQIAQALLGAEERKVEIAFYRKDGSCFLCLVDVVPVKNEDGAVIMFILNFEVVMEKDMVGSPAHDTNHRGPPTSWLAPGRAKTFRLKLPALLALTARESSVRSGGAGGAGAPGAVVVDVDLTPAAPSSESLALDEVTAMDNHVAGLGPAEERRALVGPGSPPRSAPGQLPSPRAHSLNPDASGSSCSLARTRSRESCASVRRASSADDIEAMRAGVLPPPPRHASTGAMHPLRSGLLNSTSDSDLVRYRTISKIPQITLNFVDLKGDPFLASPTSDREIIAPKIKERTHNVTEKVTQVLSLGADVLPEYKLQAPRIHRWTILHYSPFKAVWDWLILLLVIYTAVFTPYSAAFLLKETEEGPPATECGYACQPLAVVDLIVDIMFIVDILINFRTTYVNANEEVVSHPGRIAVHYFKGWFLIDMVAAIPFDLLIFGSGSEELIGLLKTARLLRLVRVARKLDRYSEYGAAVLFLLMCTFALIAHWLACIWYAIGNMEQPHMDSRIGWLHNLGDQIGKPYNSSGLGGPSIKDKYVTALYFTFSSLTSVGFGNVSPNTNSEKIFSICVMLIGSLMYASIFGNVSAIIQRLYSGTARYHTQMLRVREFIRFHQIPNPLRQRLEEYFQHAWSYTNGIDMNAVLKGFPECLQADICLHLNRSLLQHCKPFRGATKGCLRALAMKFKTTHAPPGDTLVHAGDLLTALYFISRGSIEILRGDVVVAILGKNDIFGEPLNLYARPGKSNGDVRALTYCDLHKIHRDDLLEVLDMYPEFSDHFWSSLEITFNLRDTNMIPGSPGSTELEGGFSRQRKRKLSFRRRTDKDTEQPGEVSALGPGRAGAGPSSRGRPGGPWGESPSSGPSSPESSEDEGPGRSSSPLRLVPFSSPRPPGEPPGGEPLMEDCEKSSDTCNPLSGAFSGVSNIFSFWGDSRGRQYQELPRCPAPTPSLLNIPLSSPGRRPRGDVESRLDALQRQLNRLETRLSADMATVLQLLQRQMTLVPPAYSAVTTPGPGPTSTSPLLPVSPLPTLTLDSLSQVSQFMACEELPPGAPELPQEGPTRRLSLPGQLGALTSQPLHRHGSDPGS

SMILES | hERG current change (%, negative = inhibition) at 1uM [%]
COc1ccc(-c2ccc(OC)c([C@H]3[C@H]4C=CC[C@@H](C)[C@@H]4C(=O)N3Cc3ccccc3)c2)cc1C | 12.6
CCOc1cc(S(=O)(=O)NCc2ccc3c(c2)OCO3)c(C)cc1C | 13.8
CCCCC(=O)NC(Nc1cc(C)ccn1)(C(=O)OCC)C(F)(F)F (centres unmarked) | 6.65
COc1ccc(-c2csc(Nc3ncccc3C)n2)cc1OC | -1.7
COc1ccc(-c2nn(C)c(=O)c3ccccc23)cc1CNC(=O)NC1CCCCC1 | 3.84
COc1ccccc1N1CCN(S(=O)(=O)c2ccc(NC(C)=O)cc2)CC1 | 7.93
CC(=O)Nc1ccc(S(=O)(=O)N(C)c2ccc(O)cc2)cc1 | 2.34
CCOc1ccc(N(C(=O)CNC(=O)c2cccs2)C(C(=O)NCC2CCCO2)c2ccc(OC)c(OC)c2)cc1 (centres unmarked) | 1.63
CC1CN(C(=O)COC(=O)c2ccc(Cl)nc2)CC(C)O1 (centres unmarked) | 11.8
CCCCc1ccc(NC(=S)NCc2ccccc2OC)cc1 | 14.1
CCOC(=O)c1c(C)oc2ccc(OC(=O)N3CCOCC3)cc12 | -3.52
COc1cc(-c2nnc(NC(=O)c3ccco3)o2)cc(OC)c1OC | 3.76
CC(=O)c1ccccc1OCCCCN1CCCCC1.O=C(O)C(=O)O | -29.5
CCCCN1CC(=O)N2[C@H]3c4cc(Br)ccc4OC[C@@H]3[C@H](C(=O)OCC)[C@]2(C)C1=O | 15.1
CCc1nnc2cccc(Cl)n12 | 1.31
CCNC(=O)CC(=O)Nc1ccccc1C(=O)O | 8.16
COc1cc(S(=O)(=O)NCC2OCCc3ccccc32)ccc1-n1cnnn1 (centres unmarked) | -7.28
CCOCc1nnc(NC(C)=O)s1 | 12.2
Cc1nc(C(=O)NC2CCCCC2)sc1C1(C)CC(c2cccc([N+](=O)[O-])c2)=NO1 (centres unmarked) | 5.74
CCOC(=O)C1CCN(C(=O)c2c(-c3c(F)cccc3Cl)noc2C)CC1 | -1.92
Cc1ccc(CSCCNC(=O)c2ccc(Cl)c(S(=O)(=O)N3CCOCC3)c2)cc1 | -1.75
COc1ccc(C(=O)COC(=O)/C=C/c2ccccc2)c(OC)c1 | 16.3

SMILES | hERG current change (%, negative = inhibition) at 1uM [%]
COC(=O)c1ccccc1C(=O)c1cccc2ccccc12 | 10.3
Cc1ccc(S(=O)(=O)CCC(=O)NCCN2C(=O)S/C(=C\c3ccccc3)C2=O)cc1 | 7.65
COc1cc(Cl)c(C)cc1NC(=O)c1ccccc1NC(=O)CN1CCOCC1 | -18.6
Nc1ccc(S(=O)(=O)NCc2ccccn2)cc1 | 1.67
CC(=O)Nc1ccc(NC2=C/C(=N/S(=O)(=O)c3cccs3)c3ccccc3C2=O)cc1 | 12.6
CCOc1ccc(C(C)NC(=O)CCC(=O)O)cc1 (centres unmarked) | 2.27
Cc1cc2n(n1)C(c1ccc(N(C)C)cc1)Nc1ccccc1-2 (centres unmarked) | 0.64
COc1cccc(C(=O)Nc2ccc(NC(=O)C(C)(C)C)cn2)c1 | 7.91
O=C(O)c1ccc(Cn2cc(Cl)cn2)cc1 | 15.9
CC1(C)C=C(c2ccc(O)cc2)CC(C)(C)N1 | 12
CC(=O)c1cc(NC(=O)c2cccc(C(F)(F)F)c2)c(=O)oc1C | 8.48
N#CC(C#N)=Cc1ccc(OCC(=O)N2CCOCC2)cc1 | 2.49
Cc1ccc(C(=O)NCCCNC(=O)Cc2ccccc2)cn1 | 16.2
Cc1ccc(NC(=O)c2ccc(F)cc2F)cc1 | 11.1
O=C(COC(=O)c1cccnc1Cl)NCCC1=CCCCC1 | 10.3
O=c1c2ccccc2nnn1CSc1ccc2c(c1)OCCO2 | 1.76
CC(=O)Oc1c(I)cc(I)cc1C(=O)Nc1ccc(Cl)cc1 | 16.3
CCOc1ccccc1OCCOCCOc1ccccc1[N+](=O)[O-] | 5.55
O=Cc1ccc(-n2cncn2)cc1 | 16.1
O=C(O)c1ccccc1-c1ccc(/C=c2\sc3nc4cc(Br)cnc4n3c2=O)o1 | 17.6
CC(=C/C(=O)O)/C=C/c1cccs1 | 8.88
Cc1cc(C)c(C(=O)COC(=O)Cn2c(C)csc2=O)cc1C | 5.67
